PubChem BioAssay AID2147 (National Center for Advancing Translational Sciences (NCATS), 2009)
Values joined by “and” are separate entries in the source; they are usually repeats but may differ in a detail not shown here. Identical values can stand only once. About 3,600 (1.6%) of roughly 230,000 compounds were called active. This list was built around the results that the source calls inconclusive (neither active nor inactive); the mix of calls is not that of the screen. The call rests on the fitted dose curve; in most records, active means well fitted inhibition curve with a large enough effect (not every such curve was filed as active); inconclusive means small, poorly fitted or top-dose-only effect, or another doubt; inactive means no such curve, though single readings can be large or run the other way. Potencies of inconclusive entries are doubtful fits and often do not repeat.
Further: nearly all actives have a fitted effect of over 50% in size.
Potency means the concentration at half of the fitted maximal effect; tags describe the fitted curve by direction and shape.
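Wherever activity change, negative = inhibition is given: 0% = wells with enzyme and -100% = buffer wells without enzyme.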

What follows are compounds tested against Lysine-specific demethylase 4E (Homo sapiens) (UniProt B2RXH2) (assay: qHTS Assay for Inhibitors of Human Jumonji Domain Containing 2E (JMJD2E)). Conditions: JMJD2E catalytic domain, FDH-coupled NADH fluorescence (FDH is formaldehyde dehydrogenase); series mostly up to 57.1 µM; activity change, negative = inhibition: at the top concentration.
Chain of UniProt B2RXH2 (B2RXH2 whole entry, looked up, the tested form may be a part): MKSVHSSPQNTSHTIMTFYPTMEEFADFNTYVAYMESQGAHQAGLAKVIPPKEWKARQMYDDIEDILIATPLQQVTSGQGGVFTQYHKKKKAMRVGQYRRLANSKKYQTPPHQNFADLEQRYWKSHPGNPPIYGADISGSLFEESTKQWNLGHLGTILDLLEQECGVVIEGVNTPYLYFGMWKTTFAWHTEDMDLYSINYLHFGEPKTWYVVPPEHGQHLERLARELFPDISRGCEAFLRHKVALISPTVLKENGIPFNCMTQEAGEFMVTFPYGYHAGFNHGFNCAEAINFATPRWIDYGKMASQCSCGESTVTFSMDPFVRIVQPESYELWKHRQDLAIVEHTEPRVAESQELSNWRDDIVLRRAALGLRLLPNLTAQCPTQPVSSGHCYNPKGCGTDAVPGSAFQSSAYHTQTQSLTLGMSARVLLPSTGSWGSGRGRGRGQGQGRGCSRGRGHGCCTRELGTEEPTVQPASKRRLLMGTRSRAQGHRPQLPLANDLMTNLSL
With `Cc1ccc(C#N)c(SCc2ccccc2[N+](=O)[O-])n1` the “activity change, negative = inhibition” value was inactive: 1.66%. For `CCn1c2c(c(=N)c3c1CCC3)CCC2`, the “activity change, negative = inhibition” value was inactive: 4.79%. `CC(=O)Nc1ccc(NC(=S)Nc2ccccc2)cc1` was tested, and the “activity change, negative = inhibition” value was inactive: -1.43%. In the case of `C=C(C)CNC(=S)Nc1cccc(N)n1`, the “activity change, negative = inhibition” value is reported as inactive: -6.23%. For `CC1=NN(C(=O)c2ccc(Br)cc2)C(O)(c2ccccc2)C1` (stereo not given), the Potency was inconclusive: 39.8 µM [inhibitor, single point]. In the case of `Cc1ccc(/C=N/NC(=O)c2ccccc2OCc2cccc(Br)c2)o1`, the Potency is reported as inconclusive: 39.8 µM [inhibitor, single point]. In the case of `Cc1cccc(NC(=O)C(C)OC(=O)c2ccccc2NS(=O)(=O)c2cc(C)c(C)c([N+](=O)[O-])c2)c1` (stereo not given), the “activity change, negative = inhibition” value is reported as inactive: -8.93%. `Cc1cc(NC(=O)CSc2ccc3nnc(-c4cccnc4)n3n2)no1` was tested, and the Potency was inconclusive: 22.4 µM [inhibitor, partial curve]. `COC(=O)CSc1ncnc2c1sc1nc(-c3ccco3)c3c(c12)CC(C)(C)OC3` was tested, and the Potency was inconclusive: 2.51 µM [inhibitor, partial curve]. `O=C(Oc1cc2oc(=O)c3c(c2cc1Cl)CCCC3)c1ccco1` was tested, and the Potency was inconclusive: 15.8 µM [inhibitor, partial curve]. In the case of `COc1ccc(-c2nnc(SCc3cc(C)ccc3C)n2N)cc1`, the “activity change, negative = inhibition” value is reported as inactive: -12.8%. In the case of `N[C@@H](CO)C(=O)NNCc1ccc(O)c(O)c1O`, the Potency is reported as active: 7.94 µM. For `CCC(=O)N(Cc1ccc2c(c1)OCO2)Cc1cc2cc(OC)ccc2[nH]c1=O`, the Potency was inconclusive: 28.2 µM [inhibitor, partial curve]. For `CCOC(=O)N1CCN(C(=O)c2ccc(CS(=O)(=O)c3c(Cl)cccc3Cl)o2)CC1`, the “activity change, negative = inhibition” value was inactive: -2.96%. `C=CCn1c(SCC(=O)Nc2ccc(-c3nc4ccc(C)cc4s3)cc2)nnc1-c1ccncc1` was tested, and the Potency was inconclusive: 3.16 µM [inhibitor, full curve]. With `C=CCn1c(COc2cccc3ccc(C)nc23)nnc1SCC(=O)O` the Potency was inconclusive: 35.5 µM [inhibitor, single point]. In the case of `CCOc1ccccc1NC(=O)Cn1c(C)cc(COC)c(C#N)c1=O`, the Potency is reported as inconclusive: 39.8 µM [inhibitor, single point]. For `O=C(NCc1cccnc1)c1ccc(NC(=O)c2ccco2)cc1`, the “activity change, negative = inhibition” value was inactive: 11.1%. `COC(=O)[C@@]1(Cc2ccc(F)cc2)[C@H]2c3cc(C(=O)N(C)C)n(Cc4c(CO)[nH]cc(C)c4=O)c3C[C@H]2CN1C(=O)c1ccccc1` was tested, and the Potency was “inactive and inconclusive: 39.8 µM [inhibitor, single point]”. `CCSc1nnc2ccc(-c3ccco3)nn12` was tested, and the Potency was inconclusive: 28.2 µM [inhibitor, single point]. `Cn1cc(/C=N\O)nc2c(=O)n(-c3ccccc3)c(=O)nc1-2` was tested, and the Potency was inconclusive: 28.2 µM [inhibitor, partial curve]. For `COc1ccc(-c2nc(SCC(=O)NC3CCCC3)c(-c3ccc(OC)cc3)[nH]2)cc1`, the “activity change, negative = inhibition” value was inactive: 2.48%. For `CCN(CCCNC(=O)c1c(C)cc(=O)oc1C)c1cccc(C)c1`, the “activity change, negative = inhibition” value was inactive: -2.39%. In the case of `O=C(NCCn1ccc2ccccc21)c1ccc(S(=O)(=O)N2CCCCC2)cc1`, the “activity change, negative = inhibition” value is reported as inactive: 5.5%. With `CC(C)COc1ccc(C(=O)Nc2ccc(NC(=O)c3ccco3)c(Cl)c2)cc1` the Potency was inconclusive: 35.5 µM [inhibitor, single point]. With `CCCCCC1CC(CC(=O)Nc2ccc([N+](=O)[O-])cc2)OC1=O` (stereo not given) the “activity change, negative = inhibition” value was inactive: -18.3%. `COc1cc2nc(CCc3ccccc3)oc(=O)c2cc1OC` was tested, and the Potency was inconclusive: 28.2 µM [inhibitor, single point]. In the case of `Cc1ccc(NC(=O)c2cc(-c3ccco3)on2)cc1`, the Potency is reported as inconclusive: 25.1 µM [inhibitor, partial curve]. `COc1ccc(-c2ccc3ccccc3n2)cc1` was tested, and the Potency was inconclusive: 31.6 µM [inhibitor, partial curve]. With `Cc1cc(C)c2cccc(N)c2n1` the Potency was inconclusive: 31.6 µM [inhibitor, partial curve]. In the case of `COc1ccccc1/C=C/C(=O)/C=C/c1ccccc1O`, the Potency is reported as inconclusive: 35.5 µM [inhibitor, single point]. With `CCCCCCCC1Cc2ccccc2C(C(C(=O)OC)C(=O)OC)N1C(=O)OC` (stereo not given) the Potency was “inactive”. For `Nc1nc(-c2ccc(Cl)cc2)nn1C(=O)c1cccs1`, the Potency was inconclusive: 28.2 µM [inhibitor, single point]. In the case of `CC(C)c1nc(NCCN2CCOCC2)c(C#N)c2c1COC(C)(C)C2`, the Potency is reported as inconclusive: 31.6 µM [inhibitor, single point]. For `CCn1c2ccccc2c2cc(/C=N/NC(=O)c3ccccc3)ccc21`, the Potency was inconclusive: 28.2 µM [inhibitor, partial curve]. In the case of `CCC1(C)Cc2[nH]c(=O)c(C#N)cc2CO1` (stereo not given), the Potency is reported as inconclusive: 25.1 µM [inhibitor, partial curve]. `O=C(CC1CC2CCC1C2)NCc1cccs1` (stereo not given) was tested, and the “activity change, negative = inhibition” value was inactive: 7.83%. `CCOc1oc(-c2ccc(OC)cc2)nc1C(F)(F)F` was tested, and the Potency was inconclusive: 35.5 µM [inhibitor, single point]. With `COc1ccc(C2CC(c3c(-c4ccccc4)c4cc(Cl)ccc4[nH]c3=O)=NN2C(=O)CCC(=O)O)cc1` (stereo not given) the Potency was inconclusive: 25.1 µM [inhibitor, partial curve]. In the case of `CC(C)OC(=O)c1cc2c(ccn2-c2ccc(F)cc2)n1CC(=O)N1CCN(C(=O)c2ccco2)CC1`, the Potency is reported as inconclusive: 3.55 µM [inhibitor, full curve]. For `CN=C(NC#N)NCCSC[C@H]1N=CN=C1C`, the “activity change, negative = inhibition” value was inactive: 10.8% [at 25.5 µM]. In the case of `Cc1ccsc1/C=N/N1CCN(Cc2ccccc2)CC1`, the “activity change, negative = inhibition” value is reported as inactive: -3.49%. With `CN1CCC(Oc2ccccc2Sc2ccc(C(F)(F)F)cc2)CC1` the Potency was inconclusive: 39.8 µM [inhibitor, single point]. In the case of `NC(=O)CSc1nc2cc3c(cc2c(=O)n1CCCC(=O)NCc1ccc2c(c1)OCO2)OCO3`, the “activity change, negative = inhibition” value is reported as inactive: 4.03%. `O=C1C(Cl)=C(Nc2ccccc2)C(=O)c2ccccc21` was tested, and the “activity change, negative = inhibition” value was inactive: -0.0691%. In the case of `CC1(OC(=O)CCc2ccccc2)C(=O)C=C2C=C(c3ccsc3)OC=C2C1=O` (stereo not given), the Potency is reported as “inactive”. With `Cc1ccn2cc(CNC(=O)c3ccc(Br)o3)nc2c1` the Potency was inconclusive: 39.8 µM [inhibitor, single point]. For `COc1ccccc1CNCc1cc(OC)c(OC)c(OC)c1`, the Potency was inconclusive: 28.2 µM [inhibitor, single point]. With `COc1ccc(C(=O)c2cnc(/N=C/N(C)C)s2)cc1` the Potency was inconclusive: 28.2 µM [inhibitor, single point]. With `COc1ccc(OC)c(NC(=O)c2ccc(NC(C)=O)cc2)c1` the Potency was inconclusive: 25.1 µM [inhibitor, partial curve]. `Cc1c(C(=O)NCc2ccc3c(c2)OCO3)oc2ccc(S(=O)(=O)N3CCCCCC3)cc12` was tested, and the Potency was inconclusive: 31.6 µM [inhibitor, single point]. With `O=C(CCSc1ccccc1)Nc1nc2c(s1)COc1ccccc1-2` the Potency was inconclusive: 25.1 µM [inhibitor, single point]. In the case of `Cc1ccc2nc(-c3ccsc3)c(NC3CCCC3)n2c1`, the Potency is reported as inconclusive: 31.6 µM [inhibitor, partial curve]. For `CCCCNS(=O)(=O)c1ccc(OC)c(Cl)c1Cl`, the “activity change, negative = inhibition” value was inactive: 8.2%. `COc1ccc(C2/C=C\CN(C(=O)Nc3ccccc3-c3ccccc3)CC(=O)N2Cc2ccc(F)cc2)cc1` (stereo not given) was tested, and the “activity change, negative = inhibition” value was inactive: -8.02%. With `O=C(O)Cc1sc(-c2ccccc2)nc1-c1cccs1` the Potency was inconclusive: 35.5 µM [inhibitor, partial curve]. For `CC(=O)Nc1ccc(/C=N/NS(=O)(=O)c2cc(C)ccc2C)cc1`, the Potency was inconclusive: 39.8 µM [inhibitor, single point]. For `O=C(Nc1nnc(SCc2ccccc2)s1)c1ccco1`, the Potency was inconclusive: 39.8 µM [inhibitor, single point]. With `CCn1c2ccccc2c2cc(NC(=O)c3ccco3)ccc21` the “activity change, negative = inhibition” value was inactive: 4.14%. `COc1ccccc1C(=O)NC(=S)NNC(=O)c1sc2ccccc2c1Cl` was tested, and the “activity change, negative = inhibition” value was inactive: 0.787%. `Cc1cc2oc(=O)cc(CN3CCN(Cc4ccc5c(c4)OCO5)CC3)c2cc1C` was tested, and the “activity change, negative = inhibition” value was inactive: -5.04%. In the case of `Cc1nnc(N(C)C(=O)c2cnccn2)s1`, the “activity change, negative = inhibition” value is reported as inactive: 4.14%. In the case of `CCOc1ccc(S(=O)(=O)Nc2nc3ccccc3nc2-n2ccc(=NC(=O)c3cccs3)cc2)cc1`, the Potency is reported as inconclusive: 39.8 µM [inhibitor, single point]. For `Oc1cccc2c(NC(=S)Nc3ccc(OC(F)F)cc3)cccc12`, the “activity change, negative = inhibition” value was inactive: 0.0614%. With `CC1CCN(c2c(NCC3CCC(C(=O)NCCc4ccccc4)CC3)c(=O)c2=O)CC1` (stereo not given) the “activity change, negative = inhibition” value was inactive: 4%. With `CC(NCC(=O)Nc1cc(S(=O)(=O)N2CCCCCC2)ccc1Cl)c1ccccc1` (stereo not given) the Potency was inconclusive: 39.8 µM [inhibitor, single point]. For `COC(=O)c1cccc(NC(=O)/C(=C\c2ccccc2)NC(=O)c2ccccc2Cl)c1`, the Potency was inconclusive: 39.8 µM [inhibitor, single point]. With `CCn1nc(C)cc1C(=O)N1CCCC(C(=O)c2ccc3ccccc3c2)C1` (stereo not given) the Potency was inconclusive: 39.8 µM [inhibitor, single point]. For `COCc1cc(C)nc(Nc2cc(C)ccc2C)c1C#N`, the Potency was inconclusive: 39.8 µM [inhibitor, single point]. For `CN(CCC#N)Cc1cc(=O)oc2ccc3ccccc3c12`, the Potency was inconclusive: 39.8 µM [inhibitor, single point]. `O=c1[nH]c2ccccc2c(O)c1O` was tested, and the Potency was inconclusive: 25.1 µM [inhibitor, partial curve]. For `CCn1c(SCc2nc3cc(OC)c(OC)cc3c(=O)[nH]2)nc2ccccc21`, the “activity change, negative = inhibition” value was inactive: -4.62%. In the case of `CCNC(=S)N1CCN(c2ccc([N+](=O)[O-])cc2)CC1`, the “activity change, negative = inhibition” value is reported as inactive: 1.35%. `CC(C)OC(=O)CSc1nnc(-c2cccnc2)n1N` was tested, and the “activity change, negative = inhibition” value was inactive: 7.11%. `Cc1[nH]c(=O)[nH]c(=O)c1CSCC(=O)OCC(=O)c1ccc(Br)cc1` was tested, and the “activity change, negative = inhibition” value was inactive: 1.74%.
